Experimental data from patent publication US20170368082A1, “FORMULATIONS OF BRINCIDOFOVIR” (priority 2016, published 2017).
“And” between values parts separate entries of the source, which are not always exact repeats. Identical values can stand only once. Further values from the same series stand in other lists.

Assays:
[1] = 28-day study toxicokinetics of brincidofovir and CDV in plasma; assay type: in vivo, Sprague-Dawley CD rats; settings: plasma brincidofovir, Day 29, 1 mg/kg, combined male and female rats, mean
Protocol: Blood samples were obtained for the determination of plasma concentrations of brincidofovir and the brincidofovir metabolite, cidofovir.
(§1) Approximately 0.40 mL of whole blood was obtained via the tail vein from each animal at each time point. Animals were not fasted prior to blood collection. Blood was collected into tubes containing K2EDTA anticoagulant and placed on wet ice in an upright position. Plasma was separated by centrifugation (for 10 minutes at approximately 2000 g, at approximately 2-8° C.). Approximately 0.150 mL of plasma was transferred into a single cryotube appropriately labeled as to study number, animal number, time point, date of sampling and sample type. Remaining plasma was transferred into a second cryotube and retained as a backup sample. Plasma was obtained and frozen at approximately −80±10° C. within approximately 2 hours after collection of each blood sample until analysis. Animals were euthanized (CO2 inhalation) after the final blood collection.
Bioanalytical samples were analyzed using a validated liquid chromatographic-triple quadruple mass spectrometric (LC-MS/MS) assay at Pyxant Labs.
Upon receipt of the plasma concentration data, noncompartmental toxicokinetic analysis was performed by Nuventra, Inc. Durham, N.C.

[2] = Phase 2 toxicokinetics of brincidofovir and cidofovir in plasma; assay type: in vivo, Sprague-Dawley CD rats; settings: for Imputed Concentration, Mean / Imputed Concentration, individual animals: brincidofovir 15 mg/kg 2-h IV infusion, BLQ imputed as zero
Protocol: Plasma samples (108) were collected 2 hours following the initiation of dosing on Day 1 and Day 7 (Group 1), or at 1, 2, 8, and 24 hours following the initiation of dosing on Day 1, and prior to administration and at 2, 8, and 24 hours following the initiation of dosing on Day 7 (Groups 2 and 3), and analyzed to determine the concentrations of brincidofovir and the metabolite, cidofovir), by LC/MS/MS.
as §1, with “0.4” for “0.40”, “position, per facility SOP prior to processing.” for “position.”, “(10” for “(for 10”, “0.10” for “0.150”, “with” for “as to”, “Plasma” for “Plasma was obtained and”
In general, TK parameters were estimated using mean plasma concentrations of brincidofovir and cidofovir derived from the composite blood sampling design using Phoenix WinNonLin (V 6.3).
A composite blood sampling design was used such that each rat was sampled twice per sampling day. Blood was collected via tail vein from unanesthetized animals into tubes containing anticoagulant and placed on wet ice in an upright position. Animals were not fasted prior to blood collection. Plasma was separated by centrifugation (for 10 minutes at approximately 2000 g, at approximately 2-8° C.), and transferred into individually labeled cryotubes. All cryotubes containing the collected plasma samples were appropriately labeled as to study number, animal number, time point, date of sampling and sample type. All plasma samples were obtained and frozen at approximately −80° C. (±10° C.) within approximately 2 hours after collection of each blood sample until analysis.
Rat plasma bioanalysis was conducted by Pyxant Laboratories. Plasma samples were analyzed for concentrations of brincidofovir and cidofovir using a method based upon protein precipitation extraction followed by LC-MS/MS analysis; calibration ranges for brincidofovir and cidofovir were 1.00-1500 ng/mL and 5.00-750 ng/mL, respectively, (Pyxant study number 3025) for a 50 μL aliquot of rat plasma. Sample analysis for ISR was not performed as part of this non-GLP study.
For the generation of Mean Profiles, all sample concentrations that were below the limit of quantitation (BLQ) were set to 0.
All pharmacokinetic parameter estimates were completed using a Non-Compartmental Model (Model 200-202 for IV infusion administration). The AUClast and AUCinf were calculated using the linear up log down trapezoidal rule.

[3] = 1 mg/kg, female rats, Day 1, 1 h, listed as BCV, 1 mg/kg
[4] = 1 mg/kg, female rats, Day 1, 2 h, listed as BCV, 1 mg/kg
[5] = 1 mg/kg, female rats, Day 1, 8 h, listed as BCV, 1 mg/kg
[6] = 1 mg/kg, female rats, Day 7, 2 h, listed as BCV, 1 mg/kg
[7] = 1 mg/kg, female rats, Day 7, 8 h, listed as BCV, 1 mg/kg
[8] = 1 mg/kg, male rats, Day 1, 1 h, listed as BCV, 1 mg/kg
[9] = 1 mg/kg, male rats, Day 1, 2 h, listed as BCV, 1 mg/kg
[10] = 1 mg/kg, male rats, Day 7, 2 h, listed as BCV, 1 mg/kg
[11] = 15 mg/kg, female rats, Day 1, 1 h, listed as BCV, 15 mg/kg
[12] = 15 mg/kg, female rats, Day 1, 2 h, listed as BCV, 15 mg/kg
[13] = 15 mg/kg, female rats, Day 1, 8 h, listed as BCV, 15 mg/kg
[14] = 15 mg/kg, female rats, Day 1, 24 h, listed as BCV, 15 mg/kg
[15] = 15 mg/kg, female rats, Day 7, 2 h, listed as BCV, 15 mg/kg
[16] = 15 mg/kg, female rats, Day 7, 8 h, listed as BCV, 15 mg/kg
[17] = 15 mg/kg, male rats, Day 1, 1 h, listed as BCV, 15 mg/kg
[18] = 15 mg/kg, male rats, Day 1, 2 h, listed as BCV, 15 mg/kg
[19] = 15 mg/kg, male rats, Day 1, 8 h, listed as BCV, 15 mg/kg
[20] = 15 mg/kg, male rats, Day 1, 24 h, listed as BCV, 15 mg/kg
[21] = 15 mg/kg, male rats, Day 7, 2 h, listed as BCV, 15 mg/kg
[22] = 15 mg/kg, male rats, Day 7, 8 h, listed as BCV, 15 mg/kg
[23] = 15 mg/kg, male rats, Day 7, 24 h, listed as BCV, 15 mg/kg

CCCCCCCCCCCCCCCCOCCCOP(=O)(O)CO[C@H](CO)Cn1ccc(N)nc1=O [Brincidofovir]
Clast [1]: 126 ng/mL
C (Concentration), individual animals [2, 3]: 109 ng/mL and 126 ng/mL and 177 ng/mL
IC (Imputed Concentration), individual animals [2, 3]: 109 ng/mL and 126 ng/mL and 177 ng/mL
C (Concentration), individual animals [2, 4]: 253 ng/mL and 164 ng/mL and 155 ng/mL
IC (Imputed Concentration), individual animals [2, 4]: 253 ng/mL and 164 ng/mL and 155 ng/mL
C (Concentration), individual animals [2, 5]: 2.30 ng/mL and 1.45 ng/mL
IC (Imputed Concentration), individual animals [2, 5]: 2.30 ng/mL and 1.45 ng/mL and 0.00 ng/mL
IC (Imputed Concentration), individual animals ([2]; 1 mg/kg, female rats, Day 1, 24 h): 0.00 ng/mL
IC (Imputed Concentration), individual animals ([2]; 1 mg/kg, female rats, Day 7, 0 h): 0.00 ng/mL
C (Concentration), individual animals [2, 6]: 115 ng/mL and 82.1 ng/mL and 89.2 ng/mL
IC (Imputed Concentration), individual animals [2, 6]: 115 ng/mL and 82.1 ng/mL and 89.2 ng/mL
C (Concentration), individual animals [2, 7]: 6.58 ng/mL
IC (Imputed Concentration), individual animals [2, 7]: 6.58 ng/mL and 0.00 ng/mL (2×)
IC (Imputed Concentration), individual animals ([2]; 1 mg/kg, female rats, Day 7, 24 h): 0.00 ng/mL
C (Concentration), individual animals [2, 8]: 156 ng/mL and 244 ng/mL and 280 ng/mL
IC (Imputed Concentration), individual animals [2, 8]: 156 ng/mL and 244 ng/mL and 280 ng/mL
C (Concentration), individual animals [2, 9]: 220 ng/mL and 283 ng/mL and 203 ng/mL
IC (Imputed Concentration), individual animals [2, 9]: 220 ng/mL and 283 ng/mL and 203 ng/mL
IC (Imputed Concentration), individual animals ([2]; 1 mg/kg, male rats, Day 1, 8 h): 0.00 ng/mL
IC (Imputed Concentration), individual animals ([2]; 1 mg/kg, male rats, Day 1, 24 h): 0.00 ng/mL
IC (Imputed Concentration), individual animals ([2]; 1 mg/kg, male rats, Day 7, 0 h): 0.00 ng/mL
C (Concentration), individual animals [2, 10]: 255 ng/mL and 189 ng/mL and 179 ng/mL
IC (Imputed Concentration), individual animals [2, 10]: 255 ng/mL and 189 ng/mL and 179 ng/mL
IC (Imputed Concentration), individual animals ([2]; 1 mg/kg, male rats, Day 7, 8 h): 0.00 ng/mL
IC (Imputed Concentration), individual animals ([2]; 1 mg/kg, male rats, Day 7, 24 h): 0.00 ng/mL
C (Concentration), individual animals [2, 11]: 3030 ng/mL and 3930 ng/mL and 3450 ng/mL
IC (Imputed Concentration), individual animals [2, 11]: 3030 ng/mL and 3930 ng/mL and 3450 ng/mL
C (Concentration), individual animals [2, 12]: 2460 ng/mL and 1860 ng/mL and 3380 ng/mL
IC (Imputed Concentration), individual animals [2, 12]: 1860 ng/mL and 3380 ng/mL
C (Concentration), individual animals [2, 13]: 7.97 ng/mL and 6.57 ng/mL
IC (Imputed Concentration), individual animals [2, 13]: 7.97 ng/mL and 6.57 ng/mL
C (Concentration), individual animals [2, 14]: 1.25 ng/mL and 2.48 ng/mL
IC (Imputed Concentration), individual animals [2, 14]: 1.25 ng/mL and 2.48 ng/mL
IC (Imputed Concentration), individual animals ([2]; 15 mg/kg, female rats, Day 7, 0 h): 0.00 ng/mL
C (Concentration), individual animals [2, 15]: 2220 ng/mL and 995 ng/mL and 1750 ng/mL
IC (Imputed Concentration), individual animals [2, 15]: 2220 ng/mL and 995 ng/mL and 1750 ng/mL
C (Concentration), individual animals [2, 16]: 6.27 ng/mL and 4.75 ng/mL
IC (Imputed Concentration), individual animals [2, 16]: 6.27 ng/mL and 4.75 ng/mL
IC (Imputed Concentration), individual animals ([2]; 15 mg/kg, female rats, Day 7, 24 h, listed as BCV, 15 mg/kg): 2.37 ng/mL and 0.00 ng/mL (2×)
C (Concentration), individual animals [2, 17]: 4020 ng/mL and 4030 ng/mL and 5060 ng/mL
IC (Imputed Concentration), individual animals [2, 17]: 4020 ng/mL and 4030 ng/mL and 5060 ng/mL
C (Concentration), individual animals [2, 18]: 2510 ng/mL and 2990 ng/mL and 3010 ng/mL
IC (Imputed Concentration), individual animals [2, 18]: 2510 ng/mL and 2990 ng/mL and 3010 ng/mL
C (Concentration), individual animals [2, 19]: 8.23 ng/mL and 9.85 ng/mL
IC (Imputed Concentration), individual animals [2, 19]: 8.23 ng/mL and 9.85 ng/mL
C (Concentration), individual animals [2, 20]: 1.10 ng/mL and 1.36 ng/mL
IC (Imputed Concentration), individual animals [2, 20]: 1.10 ng/mL and 1.36 ng/mL
IC (Imputed Concentration), individual animals ([2]; 15 mg/kg, male rats, Day 7, 0 h): 0.00 ng/mL
C (Concentration), individual animals [2, 21]: 1640 ng/mL and 1940 ng/mL and 2150 ng/mL
IC (Imputed Concentration), individual animals [2, 21]: 1640 ng/mL and 1940 ng/mL and 2150 ng/mL
C (Concentration), individual animals [2, 22]: 7.60 ng/mL and 8.73 ng/mL
IC (Imputed Concentration), individual animals [2, 22]: 7.60 ng/mL and 8.73 ng/mL
C (Concentration), individual animals [2, 23]: 1.32 ng/mL and 1.17 ng/mL
IC (Imputed Concentration), individual animals [2, 23]: 1.32 ng/mL and 1.17 ng/mL
Imputed Concentration, Mean ([2]; female rats, Day 7, 8 h): 5.45
Imputed Concentration, Mean ([2]; female rats, Day 7, 24 h): 0.790
Imputed Concentration, individual animals ([2]; female rats, Day 7, 24 h, listed as BCV): 2.37 and 0.00 (2×)
Imputed Concentration, Mean ([2]; male rats, Day 7, 8 h): 8.72
Imputed Concentration, Mean ([2]; male rats, Day 7, 24 h): 1.45
Imputed Concentration, individual animals ([2]; male rats, Day 7, 24 h, listed as BCV): 1.85 and 1.32 and 1.17
